PMC9911399, “Two distinct binding modes provide the RNA-binding protein RbFox with extraordinary sequence specificity”
Substitutions are numbered along the chain they refer to; changes in the protein carry UniProt numbers. The list shows a part of the results.

T1: RBFOX1 RRM RbFoxmut (Fox-RRM*) (Homo sapiens, UniProt Q9NWB1 109-208, R118D;E147R;N151S;E152T)
T1 sequence: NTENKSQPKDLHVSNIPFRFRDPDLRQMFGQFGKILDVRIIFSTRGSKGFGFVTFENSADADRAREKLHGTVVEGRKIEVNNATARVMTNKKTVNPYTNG

B1: AGGUCUU (DNA:RNA)
RNA: GGGAGACCGGAAUUCAGAUUGUCCAGGUCUUUUAAAUCCCGUCGUAGCCACCA
DNA 1: CAATCTGAATTCCGGTCTCCC
DNA 2: TGGTGGCTACGACGGGATT
B2: UUGGUUC (DNA:RNA)
RNA: B1 RNA with A25U, G26U, U28G, C29U, U31C
DNA 1: CAATCTGAATTCCGGTCTCCC
DNA 2: TGGTGGCTACGACGGGATT
B3: CCCCCCG (DNA:RNA)
RNA: B1 RNA with A25C, G26C, G27C, U28C, U30C, U31G
DNA 1: CAATCTGAATTCCGGTCTCCC
DNA 2: TGGTGGCTACGACGGGATT
B4: CUGUCAA (DNA:RNA)
RNA: B1 RNA with A25C, G26U, U30A, U31A
DNA 1: CAATCTGAATTCCGGTCTCCC
DNA 2: TGGTGGCTACGACGGGATT
B5: CAACGCC (DNA:RNA)
RNA: GGGAGACCGGAAUUCAGAUUGUCCCAACGCCUUAAAUCCCGUCGUAGCCACCA
DNA 1: CAATCTGAATTCCGGTCTCCC
DNA 2: TGGTGGCTACGACGGGATT
B6: CGAUAGG (DNA:RNA)
RNA: B1 RNA with A25C, G27A, C29A, U30G, U31G
DNA 1: CAATCTGAATTCCGGTCTCCC
DNA 2: TGGTGGCTACGACGGGATT
B7: GCCUCUG (DNA:RNA)
RNA: B1 RNA with A25G, G26C, G27C, U31G
DNA 1: CAATCTGAATTCCGGTCTCCC
DNA 2: TGGTGGCTACGACGGGATT
B8: AUAUUUU (DNA:RNA)
RNA: B1 RNA with G26U, G27A, C29U
DNA 1: CAATCTGAATTCCGGTCTCCC
DNA 2: TGGTGGCTACGACGGGATT
B9: UAGUUUU (DNA:RNA)
RNA: B1 RNA with A25U, G26A, C29U
DNA 1: CAATCTGAATTCCGGTCTCCC
DNA 2: TGGTGGCTACGACGGGATT
B10: AGCCGAC (DNA:RNA)
RNA: B5 RNA with C25A, A26G, A27C, C30A
DNA 1: CAATCTGAATTCCGGTCTCCC
DNA 2: TGGTGGCTACGACGGGATT
B11: AGAGCCC (DNA:RNA)
RNA: B1 RNA with G27A, U28G, U30C, U31C
DNA 1: CAATCTGAATTCCGGTCTCCC
DNA 2: TGGTGGCTACGACGGGATT
B12: GGCGCCA (DNA:RNA)
RNA: B1 RNA with A25G, G27C, U28G, U30C, U31A
DNA 1: CAATCTGAATTCCGGTCTCCC
DNA 2: TGGTGGCTACGACGGGATT
B13: AGUCCCC (DNA:RNA)
RNA: B1 RNA with G27U, U28C, U30C, U31C
DNA 1: CAATCTGAATTCCGGTCTCCC
DNA 2: TGGTGGCTACGACGGGATT
B14: AAGGAGC (DNA:RNA)
RNA: B1 RNA with G26A, U28G, C29A, U30G, U31C
DNA 1: CAATCTGAATTCCGGTCTCCC
DNA 2: TGGTGGCTACGACGGGATT
B15: GCUUAAA (DNA:RNA)
RNA: B1 RNA with A25G, G26C, G27U, C29A, U30A, U31A
DNA 1: CAATCTGAATTCCGGTCTCCC
DNA 2: TGGTGGCTACGACGGGATT
B16: UACCACA (DNA:RNA)
RNA: B5 RNA with C25U, A27C, G29A, C31A
DNA 1: CAATCTGAATTCCGGTCTCCC
DNA 2: TGGTGGCTACGACGGGATT
B17: CGAACGA (DNA:RNA)
RNA: B1 RNA with A25C, G27A, U28A, U30G, U31A
DNA 1: CAATCTGAATTCCGGTCTCCC
DNA 2: TGGTGGCTACGACGGGATT
B18: UAUCUCG (DNA:RNA)
RNA: B5 RNA with C25U, A27U, G29U, C31G
DNA 1: CAATCTGAATTCCGGTCTCCC
DNA 2: TGGTGGCTACGACGGGATT
B19: ACUGGAU (DNA:RNA)
RNA: B1 RNA with G26C, G27U, U28G, C29G, U30A
DNA 1: CAATCTGAATTCCGGTCTCCC
DNA 2: TGGTGGCTACGACGGGATT
B20: AUCGACC (DNA:RNA)
RNA: B5 RNA with C25A, A26U, A27C, C28G, G29A
DNA 1: CAATCTGAATTCCGGTCTCCC
DNA 2: TGGTGGCTACGACGGGATT

These binders were tested against T1, RBFOX1 RRM RbFoxmut (Fox-RRM*) (assay: EMSA; HiTS-Eq, 1 nM pool, 10 min; buffer printed only for the single-RNA assays: 10 mM Tris pH 7.5, 150 mM NaCl, 3.4 mM EDTA, 0.001% NP-40, 30 C). Conditions: tags: His6 N-terminal (pET28a); label: 5' 32P.
In short: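 Purified wild-type or mutant RbFox RRM at increasing concentrations was equilibrated with 1 nM of 5′-radiolabelled RNA carrying 7 randomized nucleotides for 10 min in 50 µL. Unbound RNA was separated by 8% native PAGE and sequenced. Relative association constants came from read-count changes of each RNA species compared with the control reaction, normalised to the cognate motif.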

Row | Binder | binding signal
1 | B1 | 0.0679 KA relative to UGCAUGU
2 | B2 | 0.21 KA relative to UGCAUGU
3 | B3 | 0.104 KA relative to UGCAUGU
4 | B4 | 0.0918 KA relative to UGCAUGU
5 | B5 | 0.117 KA relative to UGCAUGU
6 | B6 | 0.0747 KA relative to UGCAUGU
7 | B7 | 0.0649 KA relative to UGCAUGU
8 | B8 | 0.122 KA relative to UGCAUGU
9 | B9 | 0.119 KA relative to UGCAUGU
10 | B10 | 0.09 KA relative to UGCAUGU
11 | B11 | 0.0642 KA relative to UGCAUGU
12 | B12 | 0.0793 KA relative to UGCAUGU
13 | B13 | 0.0498 KA relative to UGCAUGU
14 | B14 | 0.101 KA relative to UGCAUGU
15 | B15 | 0.0919 KA relative to UGCAUGU
16 | B16 | 0.0966 KA relative to UGCAUGU
17 | B17 | 0.14 KA relative to UGCAUGU
18 | B18 | 0.0877 KA relative to UGCAUGU
19 | B19 | 0.0755 KA relative to UGCAUGU
20 | B20 | 0.0755 KA relative to UGCAUGU
